Test results: US12440573B2, “Antibody-conjugates for targeting of tumours expressing PTK7” (Synaffix B.V., priority 2022, dated 2025)

Test system: PTK7 expressing NCl—H446 tumor model
Assay: In vivo efficacy study, NCl—H446 xenograft (Example 31)
Design: species or system BALB/c nude mice
Settings: 5 mg/kg, single IV dose
Description: NCl—H446, lung cancer xenograft model cell line was maintained in vitro using RPMI-1640 medium supplemented with 10% FBS in humidified cell culture incubator at 37° C. with standard 5% CO2 specs. The cells in an exponential growth phase were harvested and counted for tumor inoculation.
BALB/c nude mice (female) of 7-9 weeks old received a subcutaneous injection in the right front flank region with 5×10^6 tumor cells in 0.1 ml of PBS mixed with Matrigel (1:1) for tumor development. When tumors reached an average size of 100-200 mm^3, randomization was performed into 6 groups of 8 mice and treatment began. Randomization will be performed based on “Matched distribution” method (Study Director™ Software, version 3.1.399.19). The date of randomization will be denoted as day 0.
Electronic caliper measurement were performed 2 times a week. Daily observations for clinical signs, food and water consumption, behavioral changes, animals were weighed 2 times per week. […]
Observation and data collection: After tumor cells inoculation, the animals are checked daily for morbidity and mortality. […] Tumor volumes are measured every 3-4 days in two dimensions using an caliper, and the volume data are expressed in mm3 using the formula: V=(L×W×W)/2, where V is tumor volume, L is tumor length (the longest tumor dimension) and W is tumor width (the longest tumor dimension perpendicular to L). […]

B1: 4D5-3 (conjugate)
heavy: QVQLVESGGGVVQPGRSLRLSCAASGFTFSSYAFHWVRQAPGKGLEWVAVISYDGSIKYYADSVKGRFTISRDNSKNTLYLQMNSLRAEDTAVYYCARTYYFDYWGQGTLVTVSS[left out - human IgG1 constant region]
light: EIVLTQSPDFQSVTPKEKVTITCRASQSIGSSLHWYQQKPDQSPKLLIKYASQSFSGVPSRFSGSGSGTDFTLTINSLEAEDAAAYYCHQSSSLPITFGQGTRLEIKRTVAAPSVFIFPPSDEQLKSGTASVVCLLNNFYPREAKVQWKVDNALQSGNSQESVTEQDSKDSTYSLSSTLTLSKADYEKHKVYACEVTHQGLSSPVTKSFNRGEC
  in vivo efficacy (tumor volume over time): marginal tumor growth delay
